# Source: PMC4336329 (PLoS ONE, 2015)
# Out of some 310,000 compounds screened, about 2,200 (0.71%) showed an effect of 50% or more. Effects have a minus sign here. The list shows a part of the results.
# Target: human ether-à-go-go-related gene (hERG) potassium channel (human, UniProt Q12809)
# Experiment: primary screen, population patch clamp on CHO cells stably expressing hERG
# Chain of human ether-à-go-go-related gene (hERG) potassium channel (Q12809 whole entry, looked up): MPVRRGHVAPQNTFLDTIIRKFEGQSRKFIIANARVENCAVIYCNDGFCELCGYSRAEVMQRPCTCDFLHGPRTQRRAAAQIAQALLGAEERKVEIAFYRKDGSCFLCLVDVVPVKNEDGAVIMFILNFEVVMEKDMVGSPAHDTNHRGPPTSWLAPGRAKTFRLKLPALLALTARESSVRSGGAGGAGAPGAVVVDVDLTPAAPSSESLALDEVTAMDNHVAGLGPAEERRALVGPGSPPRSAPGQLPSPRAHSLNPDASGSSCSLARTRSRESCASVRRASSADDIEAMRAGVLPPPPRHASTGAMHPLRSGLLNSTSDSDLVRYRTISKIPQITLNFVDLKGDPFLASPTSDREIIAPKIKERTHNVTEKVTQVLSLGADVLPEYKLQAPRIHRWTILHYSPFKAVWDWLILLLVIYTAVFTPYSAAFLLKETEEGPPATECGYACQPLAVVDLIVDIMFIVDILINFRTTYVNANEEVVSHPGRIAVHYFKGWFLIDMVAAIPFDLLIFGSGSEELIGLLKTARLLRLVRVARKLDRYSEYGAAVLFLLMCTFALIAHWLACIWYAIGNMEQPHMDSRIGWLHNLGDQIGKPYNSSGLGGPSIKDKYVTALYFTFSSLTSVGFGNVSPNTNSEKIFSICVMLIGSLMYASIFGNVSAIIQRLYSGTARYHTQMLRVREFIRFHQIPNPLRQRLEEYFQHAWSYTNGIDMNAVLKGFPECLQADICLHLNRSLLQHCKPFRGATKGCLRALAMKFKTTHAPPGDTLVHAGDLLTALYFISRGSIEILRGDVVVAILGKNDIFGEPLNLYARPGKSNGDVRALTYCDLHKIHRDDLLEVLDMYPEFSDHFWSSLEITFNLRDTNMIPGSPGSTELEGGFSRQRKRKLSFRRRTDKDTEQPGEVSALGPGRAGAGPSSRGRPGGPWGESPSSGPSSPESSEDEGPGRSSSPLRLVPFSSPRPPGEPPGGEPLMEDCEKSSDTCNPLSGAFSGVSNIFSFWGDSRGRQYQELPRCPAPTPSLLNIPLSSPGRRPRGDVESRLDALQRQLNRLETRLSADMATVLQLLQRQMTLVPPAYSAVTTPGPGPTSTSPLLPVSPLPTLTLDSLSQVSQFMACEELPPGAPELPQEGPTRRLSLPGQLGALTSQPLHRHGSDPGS
row,Compound,"hERG current change (%, negative = inhibition) at 1uM"
1,Cc1ccc2cc(CN(Cc3ccccc3)Cc3nnnn3C3CCCC3)c(=O)[nH]c2c1,-5.33%
2,O=C(O)c1cccc(Cn2c(Cl)c(/C=N/NC(=O)c3ccccc3Cl)sc2=O)c1,16.7%
3,O=C(CSc1ccc(C(F)(F)F)cc1[N+](=O)[O-])Nc1ccccc1,1.41%
4,CCOC(=O)c1c(C)n(CC(O)CN(CC)CC)c2cc(Br)c(OC)cc12.Cl (centres unmarked),4.3%
5,COc1ccc(Nc2nc(NCCCN3CCOCC3)nc(N)c2[N+](=O)[O-])cc1,3.71%
6,CC(C)C[C@@H](COc1ccccc1)N1CCN(Cc2ccccc2)CCC1=O,-4.6%
7,COc1ccc(N(Cc2ccc(N(C)C)cc2)C(=O)c2ccc(S(C)(=O)=O)cc2)cc1,13.1%
8,COc1ccc(C(=O)/C=C/Nc2ccc(NC(C)=O)cc2)cc1OC,-0.271%
9,NNC(=O)CP(=O)(c1ccccc1)c1ccccc1,16.8%
10,O=C(CONS(=O)(=O)c1ccc(Cl)cc1)NCCNc1ncc(C(F)(F)F)cc1Cl,8.69%
11,O=c1c2c3c(sc2nc2sc(CN4CCCCC4)cn12)CCCC3,11%
12,COc1ccccc1C(=O)NC(=O)COC(=O)Cn1cnc2c1c(=O)n(C)c(=O)n2C,3.4%
13,O=C(NCc1ccccn1)C1CC(c2ccc(F)cc2)=NO1 (centres unmarked),12.6%
14,Cc1ccc(Nc2nc(N)c([N+](=O)[O-])c(NCc3ccco3)n2)cc1,3.04%
15,O=C(CSc1nc(=O)n2ccccc2n1)N1CCN(c2ccccc2)CC1,6.22%
16,Cc1cc([N+](=O)[O-])nn1CC(=O)Nc1cnc2ccccc2c1,-15.8%
17,Cc1ccc(C)c(N2CCN(C(=O)Cn3c(=O)oc4cc(S(=O)(=O)N5CCCC5)ccc43)CC2)c1,7.82%
18,CN(Cc1ccccc1)C(=O)COC(=O)CCNC(=O)c1ccccc1Cl,1.43%
19,Cc1cc(C)cc(C(=O)NCC(=O)OCC(=O)Nc2ccc(C)cc2Br)c1,12.2%
20,CC1C(=O)Nc2ccc(S(=O)(=O)N3CCN(c4cccc(Cl)c4)CC3)cc2NC1=O (centres unmarked),2.25%
21,CCCN(CCC)CC(O)CN(c1ccccc1)S(=O)(=O)c1ccc(C)cc1 (centres unmarked),-88.6%
22,CC(=O)Nc1ccc(S(=O)(=O)NNC(=O)COc2ccc(C)cc2)cc1,3.63%

row,Compound,"hERG current change (%, negative = inhibition) at 1uM"
1,O=C(Nc1ccc2nc(-c3ccccc3)[nH]c2c1)c1ccco1,-9.37%
2,Cc1ccc2[nH]c(=O)c(CN(Cc3cccnc3)Cc3nnnn3CCN3CCOCC3)cc2c1,2.03%
3,COc1ccc(CNC(=O)c2noc3c2CCCCC3)cc1,0.386%
4,COc1ccccc1OCCCCN1CCN(c2ccccc2OC)CC1.O=C(O)C(=O)O,-13.1%
5,CCCc1cc(=O)[nH]c(SCC(=O)c2ccc3c(c2)OCCO3)n1,8.79%
6,O=C(c1cccc2ccccc12)C1CCCN(C(=O)CCCn2cncn2)C1 (centres unmarked),-0.755%
7,CCCC1CCC(c2ccc(OCC)cc2)=CC1=O (centres unmarked),11%
8,COc1ccc(C(=O)NC(C(=O)NCc2ccccn2)C(C)C)cc1 (centres unmarked),11.6%
9,Br.O=C(O)Cc1sc(N/N=C\c2ccncc2)nc1-c1ccccc1,9.73%
10,O=C(Cc1ccccc1Cl)NCCCn1ccnc1,11.5%
11,COc1ccc(/C(C)=N/NC(=O)c2sccc2-n2cccc2)cc1,14%
12,Nc1nc(SCCO)[nH]c(=O)c1NC(=O)c1ccc(Br)o1,18.2%
13,COC(=O)c1ccc(Oc2cc(C)nc(Cl)n2)cc1,16.6%
14,O=C1C(Cl)=C(N2CCN(c3ccccc3[N+](=O)[O-])CC2)C(=O)c2ccccc21,-2.78%
15,Cc1cccc2cc(CN(Cc3ccc(F)cc3)C(=O)N(C)C)c3nnnn3c12,4.51%
16,O=P(Cc1ccccn1)(c1ccccc1)c1ccccc1,9.86%
17,COc1cccc(OC)c1C(=O)Nc1ccc(S(=O)(=O)N2CCCCC2)cc1,18.3%
18,O=C1NCCC12C(=O)Nc1ccccc12 (centres unmarked),18.6%
19,CCCCC(=O)OCC(=O)c1[nH]c(C)c(C(C)=O)c1C,10.7%
20,COc1ccc(OC)c(CN2CCCC(C(=O)c3ccccc3SC)C2)c1 (centres unmarked),-26.3%
21,CN(C)/C=N/c1nccc(-c2cccs2)n1,-0.754%
22,CN(C)C=NC(=O)c1[nH]c2ccc(Cl)cc2c1-c1ccccc1,16.7%

row,Compound,"hERG current change (%, negative = inhibition) at 1uM"
1,COc1ccc(C2(CNC(=O)C(c3ccccc3)c3ccccc3)CCOCC2)cc1OC,12.8%
2,N#CCOc1nc(N2CCCCC2)nc(N2CCCCC2)n1,-1.07%
3,Cc1cc(OCc2cc(C(=O)N3CCCCCC3)no2)cc(C)c1Cl,15.7%
4,COc1cc(NC(=S)NCCCN2CCOCC2)cc(OC)c1OC,16%
5,CCc1ccccc1N(CC(=O)NC(C)(C)C)C(=O)CCC(=O)Nc1ccccn1,19%
6,CCOC(=O)c1nc2c(ccc3ccccc32)cc1C,12.6%
7,C/C(=N/NC(=O)CN1CCN(Cc2ccccc2Cl)CC1)c1cccnc1,-1.17%
8,CCC1CCCCN1CCCNC(=O)C1CCN(S(=O)(=O)N2CCC3(CC2)OCCO3)CC1 (centres unmarked),13.7%
9,COC1=C/C(=C/c2c(O)c(C#N)c3ccccn23)C=CC1=O,15.5%
10,O=C1CCCN2N=C(SCC(=O)N3CCCCC3)SC2=N1,7.89%
11,CCc1nc(SCC(=O)N2CCCC2)c2c(=O)n(C)c(=O)n(C)c2n1,8.53%
12,CC1CCCCN1CCCNC(=O)CN1C(=O)c2cccnc2Oc2ccc(Cl)cc21 (centres unmarked),7.94%
13,CC(C)Oc1ccc(C(CCNCc2ccc(O)cc2)c2ccccc2)cc1 (centres unmarked),9.26%
14,Cc1ccc2nc3c(c(Nc4ccc(O)cc4)c2c1)CCC3.Cl,3.99%
15,CCOC(=O)c1cnc(-n2nc(C)cc2C)nc1Nc1cccc(C(=O)O)c1,8.24%
16,COc1cc(C2c3c(-c4ccccc4)n[nH]c3C(=O)N2c2ccccc2)ccc1O (centres unmarked),26.1%
17,CC1=Nc2ccccc2/C1=C/c1sc(=N)n(-c2nccs2)c1O,12.9%
18,COc1ccc(CC(=O)N/N=C(\C)CC(=O)Nc2ccc3c(c2)OCCO3)cc1,8.23%
19,COCCCNC(=S)N1CCC(NC(=O)c2ccco2)CC1,5%
20,O=C(CN(Cc1ccccc1)S(=O)(=O)c1ccccc1)N/N=C/c1ccccc1[N+](=O)[O-],-3.4%
21,CCC1COC(c2cccn2Cc2ccc(Cl)cc2)=N1 (centres unmarked),12.3%
22,C#CCOCCOCCOCCNc1nc(N2CCN(C(=O)[C@H](Cc3cc4ccccc4[nH]3)n3cc(C(N)CC(C)C)nn3)CC2)nc(N2CCN(C(=O)[C@H](CCC(=O)O)n3cc(C(N)[C@H](C)CC)nn3)CC2)n1.Cl (some centres unmarked),9.27%

row,Compound,"hERG current change (%, negative = inhibition) at 1uM"
1,CCOCCCNC(=O)C(NC(=O)CNC(=O)c1ccccc1)c1ccccc1 (centres unmarked),21.4%
2,O=C(NC(=S)NC1CCS(=O)(=O)C1)c1cccs1 (centres unmarked),14.4%
3,CN(C)C(=O)CSc1cnc2ccccc2n1,6.47%
4,COc1ccc(C2C(C(=O)N3CCN(c4ccccc4)CC3)c3ccccc3C(=O)N2C)cc1OC (centres unmarked),0.0015%
5,CCN(CC)CCNC(=O)c1ccc(NC(=O)/C=C/c2cc(OC)c(OC)c(OC)c2)cc1.Cl,7.53%
6,CC(C)CNS(=O)(=O)c1cc(C(=O)OCC(=O)c2ccc3c(c2)OCCO3)c(Cl)cc1Cl,13.7%
7,CN(C)CCn1c(=S)[nH]c2ccccc2c1=O,12%
8,O=C(CNC(=S)N(Cc1ccccc1F)C1CCCCC1)NC1CC1,0.375%
9,COc1ccc(N2CCN(C(=O)c3cc(=O)c4cc(C)ccc4o3)CC2)cc1,-3.09%
10,CCCCCCc1nc2ccccc2c(=O)n1NC(=O)c1c(O)c2c(n(CC(C)C)c1=O)CCCC2,5.89%
11,CCn1cc(C2=NC(C)CO2)c2ccccc21 (centres unmarked),-0.637%
12,CCc1cccc(OCCCn2ccnc2)c1.O=C(O)C(=O)O,1.69%
13,CC1CCC(NC(=O)c2ccc(-n3cncn3)c([N+](=O)[O-])c2)CC1 (centres unmarked),5.38%
14,CC(C)(C)C(=O)Nc1sc2c(c1C#N)CCN(Cc1ccccc1)C2.Cl,10.3%
15,CCOC(=O)CSc1nc2cc(C)cc(C)c2cc1C#N,13.4%
16,COc1ccc(NC(=O)C2(c3ccc(NC(=O)c4ccc(OC)c(OC)c4)cc3)CCCC2)cc1,0.557%
17,CCOC(=O)c1c(C)[nH]c(C(=O)CSc2nc(C)cc(C)n2)c1C,10.2%
18,O=C(NC1CCCc2ccccc21)c1ccc(=O)[nH]c1 (centres unmarked),-5.45%
19,Cc1cc(C)c(C#N)c(SC(C(=O)NC(C)(C)C)c2ccccc2)n1 (centres unmarked),15.7%
20,CN(C)C(=O)c1cc(C(=O)c2ccc(F)cc2Cl)c[nH]1,11.9%
